In PubChem BioAssay AID720709 (National Center for Advancing Translational Sciences (NCATS), 2013):
The whole screen tested about 360,000 compounds, of which about 520 (0.14%) were called active. This list was built around the results that the source calls inconclusive (neither active nor inactive); the mix of calls is not that of the screen. Calls come from the whole dose curve; as a rule, active = well fitted inhibition curve with a large enough effect; inconclusive = small, poorly fitted or top-dose-only effect; inactive = no such curve, though single readings can be large or run the other way. Potencies of inconclusive entries are left out as doubtful fits.

target: Rap guanine nucleotide exchange factor 3 (Homo sapiens) (UniProt O95398); test: qHTS for Antagonist of cAMP-regulated guanine nucleotide exchange factor 3 (EPAC1): primary screen; settings: EPAC1 GEF assay, Rap1b-BODIPY-GDP exchange fluorescence; activity change, negative = inhibition: at 115 µM (top of the series); note: nearly all actives have a fitted effect of over 50% in size;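 for activity change, negative = inhibition: plate controls were vehicle for no effect and positive control for full effect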
UniProt O95398, sequence (O95398 whole entry, looked up): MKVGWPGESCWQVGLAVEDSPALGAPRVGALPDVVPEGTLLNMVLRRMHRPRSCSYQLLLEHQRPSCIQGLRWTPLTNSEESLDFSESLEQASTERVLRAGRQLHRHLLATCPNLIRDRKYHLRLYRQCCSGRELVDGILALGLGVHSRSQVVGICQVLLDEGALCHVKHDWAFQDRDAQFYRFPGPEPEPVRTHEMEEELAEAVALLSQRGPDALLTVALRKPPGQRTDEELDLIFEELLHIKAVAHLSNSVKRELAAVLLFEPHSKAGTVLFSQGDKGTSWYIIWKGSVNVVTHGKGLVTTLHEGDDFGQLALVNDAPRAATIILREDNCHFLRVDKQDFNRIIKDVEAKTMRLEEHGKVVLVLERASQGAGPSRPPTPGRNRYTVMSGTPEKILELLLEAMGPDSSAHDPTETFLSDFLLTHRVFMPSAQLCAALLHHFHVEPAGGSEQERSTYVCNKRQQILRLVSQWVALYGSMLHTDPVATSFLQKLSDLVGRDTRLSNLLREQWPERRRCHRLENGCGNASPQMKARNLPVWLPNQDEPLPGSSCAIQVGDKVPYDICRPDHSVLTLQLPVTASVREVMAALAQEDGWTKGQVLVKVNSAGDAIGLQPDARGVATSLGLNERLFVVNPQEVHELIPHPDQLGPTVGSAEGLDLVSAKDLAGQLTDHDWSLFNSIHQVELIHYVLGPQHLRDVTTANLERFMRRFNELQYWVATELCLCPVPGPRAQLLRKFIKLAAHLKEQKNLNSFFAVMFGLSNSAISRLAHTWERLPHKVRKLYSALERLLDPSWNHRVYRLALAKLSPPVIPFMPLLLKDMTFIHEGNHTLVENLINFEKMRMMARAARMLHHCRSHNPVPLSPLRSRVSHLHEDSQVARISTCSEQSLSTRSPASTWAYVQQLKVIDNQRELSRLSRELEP
Potency is the fitted concentration of half-maximal effect; tags give direction and shape of the fitted curve.

SMILES	Potency	activity change, negative = inhibition
N#Cc1c(F)cccc1NCc1cccnc1	inconclusive [inhibitor, full curve, poor fit]	
CC(=O)O[C@H]1CC[C@@]2(C)C(=CC[C@H]3[C@@H]4CC[C@H](C(C)=O)[C@@]4(C)CC[C@@H]32)C1	inactive	
CC1CCCN(CCCNC(=O)c2coc3nc4ccccc4nc23)C1 (stereo not given)	inconclusive [inhibitor, partial curve]	
Cc1ccc(/C=C2\CCCC3=C2NC(=S)NC3c2ccc(C)cc2)cc1 (stereo not given)	inconclusive [inhibitor, partial curve, poor fit]	
O=C(c1ccc(F)cc1)N1CCCC(N2CCN(Cc3ccc4c(c3)OCO4)CC2)C1 (stereo not given)	inconclusive [inhibitor, full curve, poor fit]	
CCc1nc(=O)c(-c2ccccc2)c(C)n1-c1ccccc1	inactive	
O=C(NCc1ccc2c(c1)OCO2)c1nnc(Cc2ccc(Cl)cc2)o1		inconclusive: -33.9% [inhibitor]
O=C(COc1ccccc1Cl)Nc1ccc(C(=O)c2ccc(C(=O)O)cc2)cc1	inconclusive [inhibitor, single point]	
CC1(OC(=O)C2CCCC2)C(=O)C=C2C=C3CCCCN3C=C2C1=O (stereo not given)	inconclusive [inhibitor, single point]	
COc1ccccc1/C=C1/SC(=S)N(C(C)C(=O)NC2C=CS(=O)(=O)C2)C1=O (stereo not given)	inconclusive [inhibitor, full curve]	
OC(CN=c1sc2ccccc2n1CC(O)COc1ccccc1)COc1ccccc1 (stereo not given)	inconclusive [inhibitor, full curve, poor fit]	
CC(=O)c1ccc(NC(=O)c2ccc3c(c2)C(=O)N(c2ccccn2)C3=O)cc1	inconclusive [inhibitor, partial curve]	
COc1ccc(NC(=O)COc2cccc(-n3cnnn3)c2)cc1Cl	inconclusive [inhibitor, single point]	
O=C1CC(NNc2ccccc2)C(=O)N1c1ccc(N2CCCCC2)cc1 (stereo not given)	inconclusive [inhibitor, single point]	
NC1=NC(=O)/C(=C/c2cn(Cc3ccccc3)c3ccccc23)S1	inconclusive [inhibitor, full curve, poor fit]	
CN(C)CC/C=C1/c2ccccc2Sc2c(O)cc(Cl)cc21	inactive	
CC1(C)CNC(=O)CC(C)(C)N1O	inconclusive [inhibitor, partial curve]	
CC(C(=O)Nc1ccc(O)c(C(=O)O)c1)N1C(=O)/C(=C/c2cccs2)SC1=S (stereo not given)	inconclusive [inhibitor, partial curve]	
N#CC1=C2SCC(O)(c3ccccc3)N2C(=O)CC1c1ccccc1F (stereo not given)	inconclusive [inhibitor, single point]	
COc1cccc(CNC(=O)[C@@H]2CCCN2C(=O)[C@@H]2CCCN2S(=O)(=O)c2ccc(OC)c(C)c2)c1	inactive	
O=C(/C=C/c1ccc(O)c(O)c1)O[C@@H]1C[C@](O)(C(=O)O)C[C@@H](O)[C@H]1O	inconclusive [inhibitor, full curve, poor fit]	
Cc1oc2nc(SCC(=O)NC3CCCCC3)nc(N)c2c1C	inconclusive [inhibitor, full curve]	

SMILES	Potency	activity change, negative = inhibition
CN(C)CCNC(=O)C12CC3(C)CC(C)(CC(C)(C3)C1)C2	inconclusive [inhibitor, single point]	
O=C1/C(=C\c2ccc(O)c(O)c2)C(c2ccccc2)=NN1c1ccccc1	inconclusive [inhibitor, partial curve]	
CCn1c(SCC(N)=O)nnc1-c1cc2c(C)nn(-c3ccccc3)c2s1	inconclusive [inhibitor, full curve, poor fit]	
C#CCNC(=O)C[C@@H]1C[C@@]2(C(=O)OC)CC(C)(C)CC=C2N(CCCCCCCC)C1=O	inactive	
CCCCNc1c(-c2ccc(OC)c(SC3CCCCC3)c2)nc2cc(C)ccn12	inconclusive [inhibitor, full curve, poor fit]	
COc1cc(/C=C2\CC/C(=C\c3cc(OC)c(O)c(OC)c3)C2=O)cc(OC)c1O	inconclusive [inhibitor, full curve]	
Cc1cccc(NCC(=O)N/N=C\c2cccn2C)c1	inconclusive [inhibitor, single point]	
O=C(c1ccc(Br)cc1)N(Cc1nc2ccccc2c(=O)[nH]1)C1CCCC1	inconclusive [inhibitor, partial curve, poor fit]	
CC(C)(C)C(=O)N1CCn2c1nc1ccccc12	inconclusive [inhibitor, single point]	
Clc1ccccc1-c1cc2nc(NCCCn3ccnc3)ccn2n1	inactive	
COCCN(C(=O)C(C)C)c1nnc(-c2ccc(C(C)(C)C)cc2)s1	inconclusive [inhibitor, full curve, poor fit]	
CC(=O)Nc1nc(-c2ccc(-c3ccccc3)cc2)cs1	inactive	
O=c1oc2c(O)cccc2cc1-c1nc2ccccc2[nH]1	inconclusive [inhibitor, single point]	
O=C(CSc1ccc(F)cc1)N1CCC(c2nc3ccccc3s2)CC1	inactive	
O=C(OCc1nnc(-c2ccc(Cl)cc2)o1)C12CC3CC(CC(O)(C3)C1)C2	inconclusive [inhibitor, partial curve]	
O=C(NCc1ccco1)/C(=C/C=C\c1ccccc1)NC(=O)c1ccc(Br)o1	inconclusive [inhibitor, partial curve]	
CNC(=S)NC1CC2CCCC(C1)N2Cc1ccc(C)cc1 (stereo not given)	inconclusive [inhibitor, single point]	
CN(C)c1ccc(/C=N/NC(=O)c2ccccn2)cc1	inactive	
CCCCCCn1c(=O)n2n(c1=O)C[C@]1(OC(=O)NCc3ccccc3)CN(S(=O)(=O)c3ccc(C)cc3)C[C@]1(O)C2	inactive	
CCOC(=O)c1c(S(=O)(=O)NCCc2ccc(OC)c(OC)c2)c(C)n(C)c1C		inconclusive: -2.97% [inhibitor]
C=CCSc1nnc(N2C(=O)C(O)=C(C(=O)c3ccco3)C2c2ccccc2F)s1 (stereo not given)	inconclusive [inhibitor, partial curve]	
COc1ccc(NC(=O)COc2cccnc2[N+](=O)[O-])cc1OC	inactive	

SMILES	Potency	activity change, negative = inhibition
CSC1=N/C(=C\c2ccc(C)s2)C(=O)S1	inconclusive [inhibitor, full curve]	
CC1(Cc2ccc(C(F)(F)F)o2)C(=O)Nc2ccc(-c3cccc(C(F)(F)F)c3)cc21 (stereo not given)	inconclusive [inhibitor, full curve]	
Fc1ccc(/C=C\c2nccc3c2[nH]c2ccccc23)cc1	inactive	
COc1ccc(OC)c(CN2CCCC(CCC(=O)N(C)CCc3ccccn3)C2)c1 (stereo not given)	inconclusive [inhibitor, single point]	
COc1ccc(C(=O)NCCc2nnc3ccc(SCC(=O)NCc4ccc(F)cc4)nn23)cc1	inconclusive [inhibitor, single point]	
O=C(Nc1ccc(F)cc1)c1cccnc1NCCc1ccccc1	inconclusive [inhibitor, single point]	
O=C(Nc1sc2c(c1C(=O)O)CCC2)c1ccc(F)cc1	inconclusive [inhibitor, partial curve]	
Cc1cc(N(C)Cc2ccccc2)nc2cc(O)ccc12	inconclusive [inhibitor, partial curve, poor fit]	
CC(C)C[C@H](NC(=O)C1(c2ccccc2)CCN(C(=O)[C@H]2CSCN2C(=O)OC(C)(C)C)CC1)C(=O)O	inactive	
Cc1cccc(-c2onc3ccc(C(=O)/C=C/N(C)C)cc23)c1	inconclusive [inhibitor, single point]	
Cc1ccc(C)c(OCC(=O)Nc2cc(NC(=O)COc3cc(C)ccc3C)cc(C(=O)O)c2)c1	inconclusive [inhibitor, partial curve]	
O=C1C(c2cc(=O)c3ccccc3[nH]2)=C(O)c2ccccc21	inconclusive [inhibitor, partial curve]	
Cc1ccc(NC(=O)CN(C)Cc2c(O)ccc3ccccc23)cc1	inactive	
Cc1ccc(S(=O)(=O)N(C)CC(=O)N2CCC(C(N)=O)CC2)cc1	inconclusive [inhibitor, single point]	
Cc1ccccc1NS(=O)(=O)c1ccc(OCC(=O)N2CCCC2)cc1	inactive	
O=C(COC(=O)c1cccc(-n2cnnn2)c1)c1ccc(F)cc1	inactive	
CCCCN(C(=O)Cn1ncc(Cl)c(Cl)c1=O)c1c(N)n(CC(C)C)c(=O)[nH]c1=O	inconclusive [inhibitor, partial curve]	
Cc1ccc(Cn2cc(C(=O)c3ccc(F)cc3)c(=O)c3cc4c(cc32)OCCO4)cc1	inconclusive [inhibitor, single point]	
CC(Oc1ccc(Cl)cc1Cl)c1nc(-c2ccc(NC(=O)c3ccccn3)cc2)no1 (stereo not given)	inactive	
O=[N+]([O-])c1ccc(Cn2cc(-c3cccc(C(F)(F)F)c3)nn2)cc1	inconclusive [inhibitor, full curve, poor fit]	
CC1CC(C)CN(C(C(=O)NC2CCCCC2)c2cc3ccccc3o2)C1 (stereo not given)	inconclusive [inhibitor, partial curve]	
